# PubChem BioAssay (Tox21)
# Several values for one entry are separate records, joined by “and”; a condition that tells them apart may be missing. Equal values may be shown once. Inconclusive means that the source gave no clear call. Such entries were picked first, then a sample of the others. A potency beside an inconclusive call is a rough fit, not a confirmed value. Activity calls are given as the source filed them. The call rests on the fitted dose curve; in most records, active means well fitted activation curve with a large enough effect in the repeat runs; inconclusive means weak or mixed curves; inactive means flat fitted curve, though single readings scatter.
# Assay: A CellTox Green Cytotoxicity Assay to monitor cytotoxicity in HEK293 cells - 16 hour (AID 1224888); further: nearly all actives have a fitted effect of over 35% in size
# Details: CellTox Green fluorescence; series mostly up to 76.8 µM
# In short: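 Nonlytic real-time cytotoxicity: HEK293 + CellTox Green reagent plated, 5 h preincubation, pintool compound addition (23 nL in DMSO), 37 C for 40 h, fluorescence measured at successive time points.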
# Potency means the concentration at half of the fitted maximal effect; tags describe the fitted curve by direction and shape.
row,Structure (SMILES),Potency
1,CCN(CC)CCCC(C)Nc1c2ccc(Cl)cc2nc2ccc(OC)cc12 (stereo not given),active: 23.9 µM
2,CC1(C)O[C@@H]2C[C@H]3[C@@H]4C[C@H](F)C5=CC(=O)CC[C@]5(C)[C@H]4[C@@H](O)C[C@]3(C)[C@]2(C(=O)CO)O1,"inconclusive: 30.9 µM [activator, partial curve, poor fit]"
3,NS(=O)(=O)c1cc(C(=O)O)c(NCc2ccco2)cc1Cl,"inconclusive: 43.8 µM [activator, partial curve, poor fit]"
4,Nc1cc(Cl)c(N)c(Cl)c1,"inconclusive: 38.6 µM [activator, partial curve, poor fit]"
5,CC(C)OC(=O)c1cc2c(OCC(O)CNC(C)(C)C)cccc2[nH]1 (stereo not given),"inconclusive: 26.8 µM [activator, single point]"
6,O=S1(=O)OC(c2ccc(O)cc2)(c2ccc(O)cc2)c2ccccc21,inactive
7,CN(C)CC/C=C1\c2ccccc2Sc2ccc(Cl)cc21,"inconclusive: 26.8 µM [activator, single point]"
8,CC(C)n1c(/C=C/[C@@H](O)C[C@@H](O)CC(=O)O)c(-c2ccc(F)cc2)c2ccccc21,"inconclusive: 9.52 µM [activator, single point]"
9,O=c1[nH]cnc2c1ncn2[C@H]1CC[C@@H](CO)O1,"inconclusive: 66.3 µM [activator, single point] and inconclusive: 26.8 µM [activator, single point]"
10,CCCCCc1ccc(O)cc1,active: 38.9 µM
